{"source": "PubChem BioAssay AID1814", "about": "(Broad Institute, 2009)", "note": "In all, about 300,000 compounds went through this assay and about 22,000 (7.3%) were called active. Inconclusive results, whose numbers are uncertain, are shown with a selection of clear calls. Rule as the data show it: active = activity score below about -60%; inconclusive = mostly about -28% to -61%; inactive = positive scores."}
{"test": "Activators via SNCA 5'UTR binding, MLPCN (AID 1814)", "settings": "alpha-synuclein 5'UTR reporter, activators screen; hits give low values; tested at 7.5 µM"}
{"smiles": "COC(=O)C1=C(C)N(CCc2c[nH]c3ccccc23)C(=O)C1", "activity score": "inconclusive: -52.2%"}
{"smiles": "NC1=C(Br)C(=O)c2ccccc2C1=O", "activity score": "inactive: 65.4%"}
{"smiles": "N/C(=N\\OC(=O)N1CCOCC1)c1ccccc1", "activity score": "active: -64.1%"}
{"smiles": "Cc1ccc(NCC(O)Cn2cnc3c2c(=O)n(C)c(=O)n3C)cc1", "note": "(stereo unspecified)", "activity score": "inconclusive: -21.6%"}
{"smiles": "O=C(Nc1ccc(Br)c(Br)c1)C1CCCO1", "note": "(stereo unspecified)", "activity score": "inconclusive: -56.4%"}
{"smiles": "COc1ccc(C(C)(C)C)cc1NC(=O)COC(=O)c1cnc(C)cn1", "activity score": "inconclusive: -30.1%"}
{"smiles": "N/C(=N\\O)c1ccc(NC(=O)c2cccs2)cc1", "activity score": "active: -81.1%"}
{"smiles": "Oc1ccc(Nc2nc(N3CCCC3)c3ccccc3n2)cc1", "activity score": "active: -579%"}
{"smiles": "CCOc1ccccc1OCC(=O)N/N=C(\\C)Cc1ccc(OC)cc1", "activity score": "inactive: 86.5%"}
{"smiles": "CC(=O)c1ccc(NC(=S)Nc2ccc(Br)c(Cl)c2)cc1", "activity score": "inconclusive: -48.3%"}
{"smiles": "Cc1cccc(C)c1NC(=S)N=Nc1c(O)n(C)c2ccc(S(=O)(=O)N3CCOCC3)cc12", "activity score": "inactive: 71.4%"}
{"smiles": "O=C(Nc1sc(-c2ccccc2)cc1C(=O)O)c1ccccc1", "activity score": "active: -99.5%"}
{"smiles": "CC(C)(C)C(=O)N1CCN(c2nc3ccc(Br)cc3s2)CC1", "activity score": "active: -164%"}
{"smiles": "C/C(=N/Oc1nc(C)cc(C)n1)c1ccc(Br)cc1", "activity score": "inconclusive: -44.2%"}
{"smiles": "CN(C)S(=O)(=O)Oc1cccc(C(=O)Nc2ccc([N+](=O)[O-])cc2)c1", "activity score": "active: -168%"}
{"smiles": "O=Nc1c(-c2c(O)[nH]c3cc(Br)ccc23)[nH]c2ccccc12", "activity score": "inactive: 76.6%"}
{"smiles": "COc1cccc(CNc2ccc3c(c2)nc(C)n3C)c1OC", "activity score": "inconclusive: -54.3%"}
{"smiles": "O=C(NC(=S)Nc1cccc2[nH]ncc12)c1ccccc1", "activity score": "active: -176%"}
{"smiles": "COc1cccc(NC(=O)Nc2cc(C)ccc2F)c1", "activity score": "active: -73.3%"}
{"smiles": "CC(=O)C1=C(O)C(=O)N(CCc2ccccc2)C1c1ccccc1[N+](=O)[O-]", "note": "(stereo unspecified)", "activity score": "inconclusive: -44.2%"}
{"smiles": "N#CC1=CN(Cc2ccccc2)C=C(/C=N/Nc2ccccc2)C1", "activity score": "inconclusive: -39.7%"}
{"smiles": "Cc1cc(C)cc(NC(=O)c2c(C)nc3ccccn23)c1", "activity score": "inconclusive: -29.8%"}
{"smiles": "COc1ccc(C2=NN(S(C)(=O)=O)C(c3cccs3)C2)cc1", "note": "(stereo unspecified)", "activity score": "active: -94.8%"}
{"smiles": "CC1CCc2nc(NCCO)nc(C(F)(F)F)c2C1", "note": "(stereo unspecified)", "activity score": "inactive: 53.7%"}
{"smiles": "Cc1cccc2c(C(=O)N3CCN(c4ccccc4)CC3)cc(-c3ccncc3)nc12", "activity score": "inactive: 94.1%"}
{"smiles": "O=C(COC(=O)c1ccccc1Br)NCCN1C(=O)CSC1=O", "activity score": "inconclusive: -42.7%"}
{"smiles": "OC1(c2ccc(Br)cc2)CN(c2ccccc2)C2=[N+]1CCS2", "note": "(stereo unspecified)", "activity score": "inconclusive: -55.4%"}
{"smiles": "CCOC(=O)c1cnn(-c2ccc([N+](=O)[O-])cc2)c1N", "activity score": "inconclusive: -55%"}
{"smiles": "COc1ccc(C(=O)Nc2nc3ccccc3s2)cc1", "activity score": "inactive: 67.1%"}
{"smiles": "O=C(Cc1cccs1)N/N=C/C=C/c1ccco1", "activity score": "inconclusive: -45.4%"}
{"smiles": "COc1ccc(/C=N/Nc2cc(C)nc(N)n2)cc1", "activity score": "inconclusive: -54.9%"}
{"smiles": "Cc1c(NC(=S)NC(=O)c2cc3ccccc3o2)cccc1C(=O)O", "activity score": "inconclusive: -56.7%"}
{"smiles": "CC(C)/C=C(/C(=O)c1ccc(Cl)cc1Cl)n1cncn1", "activity score": "inconclusive: -48.7%"}
{"smiles": "CCOC(=O)CCc1c(C)c2ccc(OC3CCCCC3=O)c(C)c2oc1=O", "note": "(stereo unspecified)", "activity score": "inconclusive: -55%"}
{"smiles": "CC1CCN(CCCn2c(=S)[nH]c3c(sc4ccccc43)c2=O)CC1", "activity score": "inconclusive: -59.7%"}
{"smiles": "COCc1cc(C)nc(SCC(=O)Nc2nc(C)cs2)c1C#N", "activity score": "inactive: 55.1%"}
{"smiles": "O=C1c2ccccc2C(O)N1c1ccc(Cl)cc1", "note": "(stereo unspecified)", "activity score": "active: -67.2%"}
{"smiles": "CC(=O)N=c1sc2cc(C)ccc2n1C", "activity score": "inconclusive: -53.6%"}
{"smiles": "Cc1cccc(NC(=O)Cc2cccs2)n1", "activity score": "inconclusive: -55.8%"}
{"smiles": "N#Cc1c(NC(=O)CSc2ncn[nH]2)sc2c1CCCCC2", "activity score": "inactive: 82.5%"}
{"smiles": "COc1cc2c(O)c3c(c(-c4ccc5c(c4)OCO5)c2cc1OC)C(=O)OC3", "activity score": "inactive: 108%"}
{"smiles": "CCCCCCCCCCOC(=O)Cn1c(COc2ccccc2OC)[n+](C)c2ccccc21", "activity score": "inactive: 80.6%"}
{"smiles": "CCn1c(O)c(/C=C2\\C=Nc3ccccc32)sc1=Nc1ccccc1", "activity score": "inconclusive: -58.1%"}
{"smiles": "Cc1ccccc1OCC(=O)N/N=C/c1cc2ccccc2nc1Cl", "activity score": "inconclusive: -55.1%"}
{"smiles": "CCOC(=O)/C(C(=O)Nc1ccc(Br)cc1)=C1/NC(C)(C)Cc2ccccc21", "activity score": "inconclusive: -54.8%"}
{"smiles": "CC(C)c1nc2oc3c(NCc4ccccn4)ncnc3c2c2c1COC(C)(C)C2", "activity score": "inactive: 51.4%"}
{"smiles": "CCOc1ccc(C(=O)Nc2ccc(C(F)(F)F)n(C)c2=O)cc1", "activity score": "inconclusive: -53.8%"}
{"smiles": "CCc1ccc(/C=C/C(=O)c2cc(Br)ccc(=O)c2O)cc1", "activity score": "inactive: 72.1%"}
{"smiles": "Nc1n[nH]c(N)c1N=Nc1ccc(Cl)cc1Cl", "activity score": "active: -74.4%"}
{"smiles": "O=C(CSc1ccc2ccccc2n1)c1ccccc1", "activity score": "active: -125%"}
{"smiles": "O=C(CSc1ccccc1)NCCc1ccccc1", "activity score": "active: -61.6%"}
{"smiles": "Cc1c(C)c2ccc(OCC(=O)Nc3cccnc3)c(C)c2oc1=O", "activity score": "active: -137%"}
{"smiles": "CC(=O)NNC(=O)c1csc(Cc2c(Cl)sc3ccc(Cl)cc23)n1", "activity score": "inactive: 67.1%"}
{"smiles": "O=C(CSCC(=O)N1CCCc2ccccc21)Nc1nc(-c2ccccc2)cs1", "activity score": "active: -100%"}
{"smiles": "CC(C)(C)c1ccc(OCc2ccc(C(=O)N3CCOCC3)o2)cc1", "activity score": "active: -119%"}
{"smiles": "C=CCNc1nc(C(=O)OCC(=O)c2ccccc2)cs1", "activity score": "inconclusive: -57.6%"}
{"smiles": "Cc1cccc(C(=O)N[C@H](C(=O)Nc2nc3ccccc3[nH]2)C(C)C)c1", "activity score": "inactive: 96.1%"}
{"smiles": "CC1CN(S(=O)(=O)c2ccc(C(=O)NCCCn3ccnc3)cc2)CC(C)O1", "note": "(stereo unspecified)", "activity score": "inactive: 105%"}
{"smiles": "Cc1oc2c(cc(NS(=O)(=O)c3ccc4c5c(cccc35)C(=O)N4)c3ccccc32)c1C(=O)OC(C)C", "activity score": "active: -68.8%"}
{"smiles": "COc1ccc(O)c(/C=N/NC(=O)c2c(C)nnn2-c2nonc2N)c1", "activity score": "inactive: 64.1%"}
{"smiles": "O=C(NCc1cccs1)c1nc2c(nnn2Cc2ccccc2Cl)c(=O)[nH]1", "activity score": "inactive: 77%"}
